The list shows a part of the results. At the low end of the ranking the order means little.
Target: T1, GST-Rok (full length) (UniProt O34857)
T1 sequence: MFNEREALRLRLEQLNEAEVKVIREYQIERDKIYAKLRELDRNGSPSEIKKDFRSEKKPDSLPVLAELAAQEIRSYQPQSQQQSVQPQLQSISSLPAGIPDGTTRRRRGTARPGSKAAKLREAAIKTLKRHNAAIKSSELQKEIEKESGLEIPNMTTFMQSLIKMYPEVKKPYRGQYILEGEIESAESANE
Test: protein binding microarray;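 further: rank score from −0.5 (least bound) to 0.5 (best bound)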
Conditions: Rok is a gene silencer of Bacillus subtilis; high values mean tight binding; most listed sequences are background and not binding sites; double strand, one strand shown

Sequence	binding signal [E-score]
ACGAAGCA	-0.132
CCACGGAG	-0.187
TATTAAGA	0.218
AACTCCAA	-0.254
GGAGAACC	-0.0812
GACATCAC	-0.199
ACGGTACC	0.125
CTGACGCC	-0.289
CATCGGTC	-0.11
ACTGGACC	-0.255
CTCCTGTA	0.00506
CGCAGCGC	-0.187
AAGTGTGA	0.0397
AACGGCAT	0.00282
ACCTGAGT	-0.0561
AATAATGC	0.352
GGTTGGCA	-0.138
AACGAACC	0.142
ATGATCCA	0.0872
GGAAATAA	0.115
CCGCAGGA	-0.33
CACACTTC	0.0377
CGCAAGCG	-0.189
GTGTTGTA	0.228
ATTTCCAG	0.232

Sequence	binding signal [E-score]
GGCACAAA	-0.0178
CTCTGCCA	-0.272
ATTTGGAA	0.171
CACCGGCG	-0.283
ATTACCCC	-0.0805
ATCGGGAA	-0.0601
CAAATCAA	-0.071
CTCACGTA	-0.000346
CATGCTGA	-0.132
ACACGAAT	0.0524
TCGTTTAA	0.0139
AGACCAGC	-0.103
CAGCGAGG	-0.314
AACTAGCC	0.272
GAATTTGA	0.108
ACTAGTCT	0.248
AATCTGTC	0.0375
CACTCAGG	-0.198
ATGCAATC	0.226
CAAATTTC	0.0992
AGGACTTC	-0.154
AACTGAGT	0.0634
AGCCTACT	0.015
ACACGCTA	0.146
ACTCCCGA	0.0476

Sequence	binding signal [E-score]
AAGTATTC	0.178
ACGCCGAC	-0.196
ACGGATAA	0.00676
CGTCTATA	0.145
CCCTACAC	-0.13
AGATTGAC	0.0401
AAAAATGA	-0.0293
ATTGGGCG	-0.199
ATGATAGC	0.179
CTGCTACC	0.0779
CTAGGACC	-0.192
ACCATTGC	0.171
GCCGCATA	-0.186
GGGCGCTA	-0.198
GGAACACC	-0.364
AAGCCTGT	-0.213
CCAGTCGC	-0.0693
ATGGGTAA	0.286
AGTAGCCG	0.0329
ACAGTCGA	0.0235
AAGCTAGA	0.253
AACTCGGC	0.205
ATTTTATA	0.41
CAGGTGGG	-0.362
AATTGTGG	-0.0645

Sequence	binding signal [E-score]
ACATAGAT	0.346
AAGGTGCT	-0.112
ACGTCCAA	-0.182
AGACTCAC	-0.19
ATGGGACG	-0.18
ATTGTTAG	0.294
TGGGAACA	-0.069
ATGAAAAT	-0.00181
CAATCCGA	-0.0679
GGGTCCGA	-0.271
AAAATTTA	0.293
CACCTCGG	-0.0675
AAACCTAC	0.27
CTGCACGC	-0.119
AATCTAAC	0.189
CCGCAAGA	-0.177
ATCATCAG	0.0421
ATGCTCTC	-0.109
CCAGACGA	-0.0424
AAGCTGAT	0.0256
TAGGTGGA	-0.136
GTAGCCCA	-0.113
CTGTCCGA	0.025
ATCGTTTG	-0.0128
CATAAGCC	-0.107

Sequence	binding signal [E-score]
ACGTGGAC	-0.0607
CAGGGTCG	-0.35
CGTGTTAA	-0.00492
CGATCCAG	0.101
TGGGGACA	-0.161
CGCGGGTC	-0.277
AAGGGCAT	0.0808
TGACCTCA	0.0164
CACGAGTG	-0.173
ACTAAGGC	-0.0542
CATAAAAC	0.202
CGATTCCG	-0.0412
ACCCCCAG	-0.357
TAGATCCA	0.167
CAAGGTGC	-0.39
AGTTTGTG	0.23
ATCCGAGC	-0.188
AACGGGAT	0.0521
ATATTTAG	0.287
AAGTCCAG	-0.0463
AGGCGCTC	-0.32
CATAAAAA	0.0981
CCAACGAA	0.0727
AAGGGGGA	-0.175
GCCTAGAA	-0.0275

Sequence	binding signal [E-score]
ATTTCGAG	0.194
AGGTGCGA	-0.0982
GACTTAGA	-0.202
CATTACAA	0.251
CTAAACAC	0.0731
GATTCGCC	-0.182
CACAATGC	-0.0836
ACAACGGG	-0.154
AATGAAGT	0.08
CGTGTGGA	-0.0919
CGACTCTC	-0.152
ATTTCGCC	-0.0734
GACCTTGA	-0.147
TATGAGGA	0.0118
AGAGTTAG	0.068
CCTCATAG	-0.104
ATGGGTCA	-0.0161
AGGGGACG	-0.337
ATTATAGC	0.173
TACAGCCA	-0.0232
GTGTCAAC	-0.245
CGACATTA	0.0381
GTCCAAGA	0.0111
AAAGTCCA	-0.179
AATCGTTG	-0.0397

Sequence	binding signal [E-score]
CCTGAAGG	-0.26
CCGTCGCC	-0.326
CCTCGCAG	-0.227
CTCACAAC	0.0239
CAGATAGC	0.0485
AATAGCTC	0.125
CAAGCAGA	0.135
AGTAGGGA	-0.0578
CCGTCCAG	-0.187
GGAACAGA	-0.159
CCACTATC	0.127
AGATCTGC	0.168
CCTTTGGC	-0.39
CTGTCCTA	-0.000277
GGGACGAA	-0.156
AGATTCAT	0.202
CATATTCG	0.124
CCTTTGGA	-0.265
ATTTTCGA	0.0431
ATCAGATC	0.0898
ATAGGCAG	0.108
CTTTGGAC	-0.199
CGGACTCC	-0.228
CAGATAAG	0.0501
ATTTAATC	0.147

Sequence	binding signal [E-score]
ACCTGTTG	-0.0678
CGGATACC	-0.036
ATTACCGG	0.209
AGTCCGCC	-0.31
CATGTAAG	0.121
CGTATGAA	0.143
ACTGTACC	0.066
ATCGCTTG	0.0249
GCGTACGC	0.0744
ATACTGAG	0.216
GGCTGACC	-0.171
CCTGCTAA	-0.0229
CTGCTGCC	-0.273
GACCGAAA	-0.0532
ATCGGGGG	-0.417
CGGCTTGA	-0.199
CAGGATCA	-0.0628
ATTCGCGA	0.108
AAATGCAA	0.155
CTAATACA	0.245
CCGGTGTC	-0.169
AAGCTAGG	-0.054
GAGATCTA	0.226
ACTACTAG	0.346
CCGACCCG	-0.275

Sequence	binding signal [E-score]
ACACGCTC	-0.0584
AGCAACCA	0.0365
CACGTTCG	-0.0784
CCGAGCAA	-0.0793
AATTTAGG	0.21
AACGCCAG	0.0379
ACCTCTAG	-0.13
AGCGTGCC	-0.24
CGGGTCGA	-0.282
CTAATCAG	-0.174
GCTGACAA	0.0483
ACGGGTGC	-0.295
GACTGAAA	-0.0354
GAAGCGAA	0.021
CCGATGTC	-0.147
TAGCGATA	0.14
GAGACACC	-0.292
ACGCCGGG	-0.278
GATGCCTA	-0.134
TTTAGAAA	0.183
CCATGACA	0.0472
ACCCTTGG	-0.21
CGTGAAGC	-0.239
ACTCGCAC	-0.112
GATGCCGC	-0.145

Sequence	binding signal [E-score]
ATAATGTA	0.4
AGCAACGC	-0.264
CTCCACAA	-0.0174
AGTTACGA	0.167
GCTAGCTA	0.156
GACACTGA	-0.199
GGAATTTA	0.184
AGTCATGA	0.139
ACTCAACG	-0.158
GGATGATA	0.106
ATGAACGG	-0.062
GGTCGATA	-0.0286
CGTATCAG	-0.0951
CAGGACAG	-0.0785
GGTTCCCA	-0.237
ACGCTTCC	-0.206
AAAGATCT	0.155
ACACTATC	0.211
AGTGCTCG	-0.205
GAACCCTC	-0.267
ATAAAGAC	0.113
GACTGGGA	-0.0412
CAGGGGTA	0.0671
GCCAAGTA	0.107
TGAAGTCA	-0.0361

Sequence	binding signal [E-score]
GGGGACCC	-0.373
ACTTTTAT	0.355
CCCCGACG	-0.176
ATGCTCGA	0.00823
ATATAGCC	-0.000533
AGTTGGGA	-0.117
GCGGTCTA	-0.0867
GCAGGCCC	-0.3
CTAGAAAC	0.3
GACCTATC	0.187
ATCATTGG	0.173
CATCACCA	0.0136
AATCCTGA	0.048
CAGGACTC	-0.331
CCGACATC	-0.0759
ATCTGAGC	-0.0818
CGACGTGA	0.048
CATAGTAC	0.291
ACAGTGCA	-0.12
CCCGATCA	-0.15
GGCCAAAA	-0.259
ATACTCGG	-0.0674
ATCGTCTG	-0.00651
CATCCGTC	-0.228
CGTCACGA	-0.0523

Sequence	binding signal [E-score]
ATAAATCC	0.258
CTCGGCGA	-0.139
GAGATCGC	-0.185
CGGTTTAC	0.0457
AGGAGCAT	-0.156
CTTCGCTC	-0.267
CGGATAAC	0.013
CGGGATTA	-0.224
GGATACCC	-0.103
CCACACGA	0.00954
CTATGGAC	-0.114
CAGGTTCG	-0.342
CATATGGG	-0.125
CGTACTTC	0.14
ACAGTAAG	0.116
CGAGCACC	-0.249
AGGATCGG	-0.226
ACTGAGCC	-0.225
CCGTTCGA	-0.224
TTAAATAA	0.21
CCAGTAAA	-0.00743
AATGTACG	0.192
GGGCAAAC	-0.0617
ACAGGAGC	-0.237
ACGAGTTA	0.226

Sequence	binding signal [E-score]
TACTTCAA	0.252
CGCCTTAA	-0.102
CCATATTC	0.138
CTTTAACC	0.0828
AATGTAAT	0.326
ATGGTTAG	0.0706
CCCCTCGG	-0.432
CATGCGGA	0.0647
ACTCCGTG	-0.0762
CTTCTCGA	-0.0858
AAGCAATC	0.0982
ATCTGACG	-0.0129
CAGACAAA	0.0401
AAGTGATG	0.177
CCCCAACG	-0.345
CCATCAAG	-0.215
CGGTTGGC	-0.23
CTGTAGCA	0.175
CCCCTAGG	-0.319
ATTATTTG	0.157
TAGGGTGA	-0.283
CGATTCCC	-0.133
AAAGTCTG	-0.00574
ACGTGCCT	-0.184
ACGAGAAT	0.00849

Sequence	binding signal [E-score]
AATGTGGT	0.201
ATGTATGA	0.139
CTGTGACA	-0.0794
GCCAAGAC	-0.115
ATAACCTA	0.141
CGGAACCG	-0.184
CCATATAG	0.0758
TCCAGAGA	-0.135
GAGTAACA	0.0733
AGGTATAA	0.322
GACAGACA	0.0826
GAATTGGC	-0.183
ACTGGTCT	-0.00744
AACACTTG	0.0557
AATCCTGG	-0.0447
CCATGGAC	-0.0898
TCGTCGCA	-0.0448
ATTAAAGC	0.131
ATCTAAGG	0.188
